From the supplement of paper PMC4604168 (melanoma cell lines)
This is one part of the list. Most values come without repeats; read them as rough.
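Further: cell number obtained by counting DAPI-stained nuclei in high-throughput microscope images with image analysis software, screen run in 1,536-well plates.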

Each compound was assayed on SkMel28 (assay: cell count relative to DMSO control; melanoma cells; higher = more viable cells). Details: library dose: low library concentration; 72 h.
With `Cn1cnc2c(F)c(Nc3ccc(Br)cc3Cl)c(C(=O)NOCCO)cc21` [selumetinib] + NC(=O)Nc1cc(-c2cccc(F)c2)sc1C(=O)N[C@H]1CCCNC1 [AZD7762] (first compound 0.015 µM, partner dose 0.02 µM) the cell count was 99.4%.
In the case of `COc1cc([C@@H]2c3cc4c(cc3[C@@H](O[C@@H]3O[C@@H]5CO[C@@H](C)O[C@H]5[C@H](O)[C@H]3O)[C@H]3COC(=O)[C@H]23)OCO4)cc(OC)c1O` [etoposide] + Cn1cncc1[C@@](N)(c1ccc(Cl)cc1)c1ccc2c(c1)c(-c1cccc(Cl)c1)cc(=O)n2C [tipifarnib] (first compound 0.02 µM, partner dose 0.01 µM), the cell count is reported as 91.4%.
For `CCN(CC)CCNC(=O)c1c(C)[nH]c(/C=C2\C(=O)Nc3ccc(F)cc32)c1C` [sunitinib] + O=C(CCCCCCC(=O)Nc1ccccc1)NO [vorinostat] (first compound 0.4 µM, partner dose 0.08 µM), the cell count was 88.1%.
With `COc1cc([C@@H]2c3cc4c(cc3[C@@H](O[C@@H]3O[C@@H]5CO[C@@H](C)O[C@H]5[C@H](O)[C@H]3O)[C@H]3COC(=O)[C@H]23)OCO4)cc(OC)c1O` [etoposide] + Cc1cc([N+](=O)[O-])ccc1NS(=O)(=O)c1cc(Cl)ccc1Cl [FH535] (first compound 0.02 µM, partner dose 1 µM) the cell count was 89.8%.

What follows are compounds tested on SkMel2 in the same assay as above. Details: library dose: low library concentration; 72 h.
Compound `C[C@]1(O)C[C@@H](c2nc(-c3ccc4ccc(-c5ccccc5)nc4c3)c3c(N)nccn32)C1` + CN(NC(=O)CC(=O)NN(C)C(=S)c1ccccc1)C(=S)c1ccccc1 [STA4783] (first compound 0.4 µM, partner dose 0.006 µM) has a cell count of 60.2%.
Compound `C[C@]1(O)C[C@@H](c2nc(-c3ccc4ccc(-c5ccccc5)nc4c3)c3c(N)nccn32)C1` + NCC(=O)Nc1ccc(-n2nc(C(F)(F)F)cc2-c2ccc3c(ccc4ccccc43)c2)cc1 [OSU03012] (first compound 0.4 µM, partner dose 1 µM) has a cell count of 81%.
`CCN(CC)CCNC(=O)c1c(C)[nH]c(/C=C2\C(=O)Nc3ccc(F)cc32)c1C` [sunitinib] + Oc1nc(-c2ccc(C(F)(F)F)cc2)nc2c1CSCC2 [XAV939] (first compound 0.4 µM, partner dose 2 µM) gave a cell count of 105%.
Work on `C[C@]1(O)C[C@@H](c2nc(-c3ccc4ccc(-c5ccccc5)nc4c3)c3c(N)nccn32)C1` + CC(C)CCN1c2nc(Nc3cc(F)c(O)c(F)c3)ncc2N(C)C(=O)C1C [BID1870] (first compound 0.4 µM, partner dose 0.2 µM) yielded a cell count of 68.9%.
For `CCN(CC)CCNC(=O)c1c(C)[nH]c(/C=C2\C(=O)Nc3ccc(F)cc32)c1C` [sunitinib] + COc1cc(N2CCC(N3CCN(C)CC3)CC2)ccc1Nc1ncc(Cl)c(Nc2ccccc2S(=O)(=O)C(C)C)n1 [NVP-TAE684] (first compound 0.4 µM, partner dose 0.08 µM), the cell count was 103%.
Compound `CCN(CC)CCNC(=O)c1c(C)[nH]c(/C=C2\C(=O)Nc3ccc(F)cc32)c1C` [sunitinib] + CCc1ccc(CCOc2ccc(CC3SC(=O)NC3=O)cc2)nc1 [pioglitazone] (first compound 0.4 µM, partner dose 2 µM) has a cell count of 109%.
`C[C@]1(O)C[C@@H](c2nc(-c3ccc4ccc(-c5ccccc5)nc4c3)c3c(N)nccn32)C1` + NC(=O)Nc1cc(-c2cccc(F)c2)sc1C(=O)N[C@H]1CCCNC1 [AZD7762] (first compound 0.4 µM, partner dose 0.02 µM) gave a cell count of 101%.
`C[C@]1(O)C[C@@H](c2nc(-c3ccc4ccc(-c5ccccc5)nc4c3)c3c(N)nccn32)C1` + c1cc(-c2cnn3cc(-c4ccc(OCCN5CCCCC5)cc4)cnc23)ccn1 [Dorsomorphin] (first compound 0.4 µM, partner dose 0.4 µM) showed a cell count of 94.3%.
`COc1cc([C@@H]2c3cc4c(cc3[C@@H](O[C@@H]3O[C@@H]5CO[C@@H](C)O[C@H]5[C@H](O)[C@H]3O)[C@H]3COC(=O)[C@H]23)OCO4)cc(OC)c1O` [etoposide] + COc1cc(N2CCC(N3CCN(C)CC3)CC2)ccc1Nc1ncc(Cl)c(Nc2ccccc2S(=O)(=O)C(C)C)n1 [NVP-TAE684] (first compound 0.02 µM, partner dose 0.08 µM) was tested, and the cell count was 92.8%.
In the case of `CCN(CC)CCNC(=O)c1c(C)[nH]c(/C=C2\C(=O)Nc3ccc(F)cc32)c1C` [sunitinib] + CCCCCCCCCCCC1=C(O)C(=O)C=C(O)C1=O [Embelin] (first compound 0.4 µM, partner dose 1.2 µM), the cell count is reported as 118%.
Compound `Cn1cnc2c(F)c(Nc3ccc(Br)cc3Cl)c(C(=O)NOCCO)cc21` [selumetinib] + CO[C@@H]1[C@H](N(C)C(=O)c2ccccc2)C[C@H]2O[C@]1(C)n1c3ccccc3c3c4c(c5c6ccccc6n2c5c31)C(=O)NC4 [Midostaurin] (first compound 0.015 µM, partner dose 0.08 µM) has a cell count of 75.3%.
Work on `COc1cc([C@@H]2c3cc4c(cc3[C@@H](O[C@@H]3O[C@@H]5CO[C@@H](C)O[C@H]5[C@H](O)[C@H]3O)[C@H]3COC(=O)[C@H]23)OCO4)cc(OC)c1O` [etoposide] + NC(=O)Nc1cc(-c2cccc(F)c2)sc1C(=O)N[C@H]1CCCNC1 [AZD7762] (first compound 0.02 µM, partner dose 0.02 µM) yielded a cell count of 99.3%.
`Cn1cnc2c(F)c(Nc3ccc(Br)cc3Cl)c(C(=O)NOCCO)cc21` [selumetinib] + Oc1nc(-c2ccc(C(F)(F)F)cc2)nc2c1CSCC2 [XAV939] (first compound 0.015 µM, partner dose 2 µM) gave a cell count of 88.7%.
In the case of `CCN(CC)CCNC(=O)c1c(C)[nH]c(/C=C2\C(=O)Nc3ccc(F)cc32)c1C` [sunitinib] + NC(=O)Nc1cc(-c2cccc(F)c2)sc1C(=O)N[C@H]1CCCNC1 [AZD7762] (first compound 0.4 µM, partner dose 0.02 µM), the cell count is reported as 124%.
`C[C@]1(O)C[C@@H](c2nc(-c3ccc4ccc(-c5ccccc5)nc4c3)c3c(N)nccn32)C1` + O=S(=O)(c1ccccc1)N(CC(F)(F)F)c1ccc(C(O)(C(F)(F)F)C(F)(F)F)cc1 [T0901317] (first compound 0.4 µM, partner dose 1.4 µM) was tested, and the cell count was 86.3%.
With `CCN(CC)CCNC(=O)c1c(C)[nH]c(/C=C2\C(=O)Nc3ccc(F)cc32)c1C` [sunitinib] + COc1cc(Nc2ncc(F)c(Nc3ccc4c(n3)NC(=O)C(C)(C)O4)n2)cc(OC)c1OC [Tamatinib] (first compound 0.4 µM, partner dose 0.4 µM) the cell count was 113%.
`C[C@]1(O)C[C@@H](c2nc(-c3ccc4ccc(-c5ccccc5)nc4c3)c3c(N)nccn32)C1` + COc1cc2c(Oc3ccc4[nH]c(C)cc4c3F)ncnc2cc1OCCCN1CCCC1 [cediranib] (first compound 0.4 µM, partner dose 0.4 µM) gave a cell count of 75.2%.
`C[C@]1(O)C[C@@H](c2nc(-c3ccc4ccc(-c5ccccc5)nc4c3)c3c(N)nccn32)C1` + COc1cc2ncnc(Nc3ccc(Oc4ccccc4)cc3)c2cc1OC [SrcI1] (first compound 0.4 µM, partner dose 2 µM) was tested, and the cell count was 88.9%.
`CCN(CC)CCNC(=O)c1c(C)[nH]c(/C=C2\C(=O)Nc3ccc(F)cc32)c1C` [sunitinib] + OCCn1cc(-c2cnc3nnn(Cc4ccc5ncccc5c4)c3n2)cn1 [PF04217903] (first compound 0.4 µM, partner dose 1 µM) was tested, and the cell count was 124%.
Compound `Cn1cnc2c(F)c(Nc3ccc(Br)cc3Cl)c(C(=O)NOCCO)cc21` [selumetinib] + N#Cc1c(O)c2c(-c3ccc(-c4ccccc4O)cc3)csc2[nH]c1=O [A769662] (first compound 0.015 µM, partner dose 2 µM) has a cell count of 78%.
`Cn1cnc2c(F)c(Nc3ccc(Br)cc3Cl)c(C(=O)NOCCO)cc21` [selumetinib] + c1cc(-c2cnn3cc(-c4ccc(OCCN5CCCCC5)cc4)cnc23)ccn1 [Dorsomorphin] (first compound 0.015 µM, partner dose 0.4 µM) gave a cell count of 88.4%.
In the case of `CCN(CC)CCNC(=O)c1c(C)[nH]c(/C=C2\C(=O)Nc3ccc(F)cc32)c1C` [sunitinib] + CC(C)CCN1c2nc(Nc3cc(F)c(O)c(F)c3)ncc2N(C)C(=O)C1C [BID1870] (first compound 0.4 µM, partner dose 0.2 µM), the cell count is reported as 96.3%.
For `COc1cc([C@@H]2c3cc4c(cc3[C@@H](O[C@@H]3O[C@@H]5CO[C@@H](C)O[C@H]5[C@H](O)[C@H]3O)[C@H]3COC(=O)[C@H]23)OCO4)cc(OC)c1O` [etoposide] + COc1ccc(COc2ccc(Cc3cnc(N)nc3N)cc2OC)cc1 [GW2580] (first compound 0.02 µM, partner dose 1 µM), the cell count was 109%.
With `Cn1cnc2c(F)c(Nc3ccc(Br)cc3Cl)c(C(=O)NOCCO)cc21` [selumetinib] + NCC(=O)Nc1ccc(-n2nc(C(F)(F)F)cc2-c2ccc3c(ccc4ccccc43)c2)cc1 [OSU03012] (first compound 0.015 µM, partner dose 1 µM) the cell count was 72.1%.
For `COc1cc([C@@H]2c3cc4c(cc3[C@@H](O[C@@H]3O[C@@H]5CO[C@@H](C)O[C@H]5[C@H](O)[C@H]3O)[C@H]3COC(=O)[C@H]23)OCO4)cc(OC)c1O` [etoposide] + O=C(CCCCCCC(=O)Nc1ccccc1)NO [vorinostat] (first compound 0.02 µM, partner dose 0.08 µM), the cell count was 96.1%.
